# Values marked as one replicate rest on one cluster of the flow cell; about a third of the high ones do not repeat.
# System: ATP
# Experiment: switch fluorescence ratio, 500 uM ATP over buffer (Cy3 cluster intensity, sum of 5 cycles each) (fold (ratio)); higher = stronger signal-on switching upon ATP binding; sequences stand for … in TCGTCGGCAGCGTCAGATGTGTATAAGAGACAGTTTTTTTTTTTTTTTTTTTTTTTTT…TC
# Details: aptamer strand: ATP DNA aptamer (quencher-CACCTGGGGGAGTATTGCGGAGGAAGG + anchor), 100 nM annealed; ATP concentration: 500 uM; one replicate
# In short: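 Values give the fluorescence ratio for each switch-domain sequence, averaged from per-cluster ratios of summed target-cycle to summed buffer-cycle Cy3 intensity. The Cy3-labelled switching-strand clusters sat on a modified Illumina MiSeq flow-cell, were annealed to 100 nM quencher-labelled ATP aptamer, and were imaged in selection buffer, then after 15 min with 500 uM ATP at 22 °C. Five cycles ran with NaOH stripping and re-annealing between them, and clusters outside 100-1000 RFU were excluded.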
# 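Also: ATP exposure 15 min at 22 °C before imaging.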
row,Sequence,switch fluorescence ratio
1,TCTCCTTGTC,1.73
2,TGGCGCATGA,1.01
3,TTTGAGCGTG,0.949
4,ATGATGAGGA,1.01
5,ACTGATTTGA,0.981
6,GGGGGTTGCT,1.03
7,CGAAAACGCC,1.11
8,GAACAAAGAT,1.02
9,TGGGTTGCAG,1
10,ACTCACTGGA,1.28
11,GAAGAGCTTG,0.994
12,TTATCGCCTG,1.04
13,AAAGCGTTGG,0.971
14,GTCATGCTCG,0.981
15,CAATGAGTTG,1.02
16,GGCGGGAATC,0.975
17,AATGGTGCTA,1.01
18,TCGTTGTACT,1.07
19,CATAGGTATT,0.986
20,GATAATGCTA,1.01
21,GCGAGGTCGT,0.958
22,GCCATCGTCT,1.01
23,AAGTGACTAT,0.989
24,TAGGTCTTTA,0.965
25,TGCCTGTAAC,1.05
26,AGCCCGCTCG,1.05

row,Sequence,switch fluorescence ratio
1,ATTTTCCCGC,1.11
2,TCAACAGAGG,1.02
3,CGCTGAGATT,1.01
4,GCGTCCTCGT,0.985
5,ACTCTGAATC,1.85
6,CTTTAAACCG,1.02
7,TCTTATATAT,0.978
8,TCGATTTAG,1
9,GGTCGCGTTA,1
10,TTTTATCATA,1.02
11,CTGATCATGG,1.01
12,CAATGTTGTA,1.01
13,ACGGGAAGAA,1.03
14,ACCTCATGGG,1.26
15,ACTCATCTAA,1.05
16,AACATTTCGC,1.01
17,TAACGATACA,1.29
18,TTGGTTCAGT,0.964
19,ATGTATTTCG,0.967
20,CAATTGTGGT,0.984
21,CCGTCGACGA,0.965
22,CTCGGGCGGA,1.01
23,GCCGTCTACT,1.01
24,CTCCATCTGG,1.17
25,CCTTGCTGC,2.63
26,AATCAGTAGA,1

row,Sequence,switch fluorescence ratio
1,TCCTTATTGA,1.04
2,AGGCAAAATC,1.02
3,GCTATGGGTG,1.01
4,ACGTATGTAG,0.987
5,GTGGTATGGG,0.965
6,GGGCTGACTT,0.962
7,ATTATTATA,0.999
8,TTACGTCCGG,1.04
9,GGTCCGTTGA,1.03
10,AGGCGCTCTC,1.06
11,TCACTTCTTA,1.05
12,GAGGAAACAC,1.03
13,ACAGGAAAGT,1.01
14,TCACGAAAGG,1.06
15,TTTTTCGATG,1.01
16,CGTAAAGCGC,1.03
17,GTTATTATCC,0.989
18,CTACTGGCAA,2.64
19,GGCGATCTTA,1.02
20,TAATGTAGAC,0.951
21,ACGCGGTTCC,1.06
22,CACTCTTAAA,1.12
23,TCTAATCCAG,0.947
24,GCGTATTTGA,1.03
25,CTTAATGGT,1.03
26,TGTGCTAAG,1.01

row,Sequence,switch fluorescence ratio
1,CCTCGATGCA,1.18
2,CGCAGCTGGT,1.18
3,AGCGTACAAC,1.05
4,CGCAACACGT,3.44
5,ATATTAGATC,0.976
6,CCCGGTTTTC,1.65
7,AGTGGATATA,1.01
8,ATGAAAGCG,1.04
9,CGAGTTAAGA,1.01
10,TTTCCGAGGC,1.05
11,GGGATCACAT,1
12,TCACAGTG,1.08
13,GTAACATCCA,1.03
14,CGGACGATC,1.02
15,GTTGCTGTGC,1.02
16,TAATTTATTC,1.02
17,CTAAGTCAGG,1.04
18,GAATTTCTCC,1.05
19,TCGGACCGTT,0.967
20,AGGAAACTCA,1
21,CTAAGTAAGC,1.09
22,GCGGCGTA,0.945
23,TTAGAAGAAG,1.01
24,GACGTAGGG,0.994
25,CGACTTGTT,1.02
26,TATTGCCTAC,1.02

row,Sequence,switch fluorescence ratio
1,GATTCAGGCT,0.996
2,ATTCGGGCGG,0.958
3,ACGGTGCCCT,1.08
4,ATGAGGCCGT,1.04
5,AAGATCGCTT,1.04
6,CATATTCCTG,0.981
7,GCGTGAAGTC,1.03
8,GTGCGGGAGG,1
9,AGAATTACTA,0.988
10,TCGGTCGCCG,0.989
11,TTATGGTTT,1.02
12,ATAGCACTAT,1.09
13,ATTATAGGGC,1.02
14,CGTGTTCGAC,0.946
15,CAGTGGTGCC,0.98
16,AGATGCGGGA,1
17,ATGAATCCAG,1
18,CTTATCGA,0.974
19,TGTACACGTG,1.06
20,GAAACCTAGG,1.05
21,ATCGGGTGGC,1.01
22,TTCATGCGTG,1.01
23,GGGCGTCGAC,0.999
24,AACTGAGCTG,1.07
25,AGCATGTCAG,0.998
26,TGCATGATG,0.982

row,Sequence,switch fluorescence ratio
1,GCTTTATAAA,1.09
2,CGCCCTGACG,0.982
3,CTCCGGCCGG,1.03
4,GGGTGAGTT,1
5,CGGCGATTGA,1.05
6,TTTTATCTCT,1.01
7,CCGGTAATTT,1.01
8,CATTTAATTA,1.02
9,CACAGCATAT,1.86
10,GCTAAAGCTC,1.01
11,AAGACGTGCT,0.964
12,AGTCAGGCGC,1.02
13,ACGAAAAAAA,1.01
14,AGTTGATTAT,1.04
15,GGGTTAATTA,0.958
16,GTGGCTAGCA,1.05
17,GCTCGAATGT,1.01
18,TTATACTTGG,0.994
19,TGAACCAGCT,1.03
20,CAATGTTGGT,1.03
21,TATAAAGGTT,0.961
22,TATATGGACA,0.992
23,CTGTCTTAAA,0.952

# From the supplement of paper PMC10126150
